Hit rate of the full screen: of about 410,000 compounds, about 6,400 (1.6%) were called active. Inconclusive results, whose numbers are uncertain, are shown with a selection of clear calls. Calls come from the whole dose curve; as a rule, active = well fitted inhibition curve with a large enough effect; inconclusive = small, poorly fitted or top-dose-only effect; inactive = no such curve, though single readings can be large or run the other way. Potencies of inconclusive entries are left out as doubtful fits.
molecular target: Glucagon-like peptide 1 receptor (Homo sapiens) (UniProt P43220); assay: qHTS of GLP-1 Receptor Inverse Agonists (Inhibition Mode); settings: HEK293 GLP-1R CRE-luciferase, luminescence, 24 h, GLP-1R form is constitutively active; series mostly up to 38.3 µM; note: nearly all actives have a fitted effect of over 55% in size
Method in brief: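 Assay principle: reduced luminescence from a cAMP-responsive reporter in HEK293 cells co-expressing a constitutively active GLP-1R. Conditions: 24 hr compound incubation, 37 deg C, 5% CO2.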
Potency is the fitted concentration of half-maximal effect; tags give direction and shape of the fitted curve.

Chain of UniProt P43220 (P43220 whole entry, looked up): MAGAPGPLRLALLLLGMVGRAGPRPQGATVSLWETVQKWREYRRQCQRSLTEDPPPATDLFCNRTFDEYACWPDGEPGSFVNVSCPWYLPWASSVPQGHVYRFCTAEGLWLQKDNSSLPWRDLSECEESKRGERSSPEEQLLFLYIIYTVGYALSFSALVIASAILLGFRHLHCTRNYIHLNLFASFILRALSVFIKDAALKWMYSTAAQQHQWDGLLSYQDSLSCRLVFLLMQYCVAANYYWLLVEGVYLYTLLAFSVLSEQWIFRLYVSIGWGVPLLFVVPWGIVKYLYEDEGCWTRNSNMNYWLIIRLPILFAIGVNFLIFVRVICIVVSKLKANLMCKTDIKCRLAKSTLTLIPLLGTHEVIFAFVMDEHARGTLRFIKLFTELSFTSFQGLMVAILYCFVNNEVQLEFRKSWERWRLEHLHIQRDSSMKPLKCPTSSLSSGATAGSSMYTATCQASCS

Row | SMILES | Potency
1 | Cc1ccc(NC2Sc3ccccc3NC2=O)cc1Cl (stereo unspecified) | inconclusive [inhibitor, partial curve, poor fit]
2 | O=C(NC(c1ccc2c(c1)OCO2)c1ccccn1)C1CCN(CCOc2ccc(Cl)cc2Cl)CC1 (stereo unspecified) | inconclusive [inhibitor, single point]
3 | CCOc1cc(C(=O)NCCc2sc(-c3ccc(F)cc3)nc2C)cc(OCC)c1OCC | inconclusive [inhibitor, partial curve]
4 | CCOC(=O)[C@H]1[C@H]2COc3ccccc3[C@@H]2N2C(=O)c3cc(Cl)ccc3NC(=O)[C@@]12C | inconclusive [inhibitor, partial curve, poor fit]
5 | Cc1sc2ncnc(OCC(=O)N3CCN(S(=O)(=O)c4ccc(Cl)cc4)CC3)c2c1C | inconclusive [inhibitor, partial curve, poor fit]
6 | Cc1nc2c(C)cccc2c2c1CCN2c1ccccc1F | inconclusive [inhibitor, single point]
7 | N=C(N)SCP(=O)(c1ccccc1)c1ccccc1 | inconclusive [inhibitor, single point]
8 | Cc1nc2ccc(S(=O)(=O)N(CC(=O)Nc3ccc(F)cc3F)Cc3ccccc3)cc2s1 | inactive
9 | CCOC(=O)C1=CCN(S(=O)(=O)c2ccccc2Br)C1c1cccc(F)c1 (stereo unspecified) | inconclusive [inhibitor, single point]
10 | CN(C)S(=O)(=O)c1cccc(COc2cccnc2[N+](=O)[O-])c1 | inactive
11 | N#Cc1ccccc1NC(=O)CNc1ccc(Cl)c(C(F)(F)F)c1 | inconclusive [inhibitor, single point]
12 | O=C(O)c1cc([N+](=O)[O-])c(Nc2cccc3ccccc23)c([N+](=O)[O-])c1 | inconclusive [inhibitor, single point]
13 | Cc1ccc(NC(=S)c2ccncc2)c(C)c1 | inactive
14 | CC1(CCC(=O)N2CCCC(N3CCN(c4ccc(F)cc4)CC3)C2)CC1 (stereo unspecified) | inconclusive [inhibitor, partial curve, poor fit]
15 | O=C(N/N=C\c1cc(Br)ccc1O)c1ccc(S(=O)(=O)N2CCCCC2)cc1 | inconclusive [inhibitor, full curve, poor fit]
16 | CCc1ccccc1NC(=O)C(=O)NCCCN1CCOCC1 | inactive
17 | O=S(=O)(NCCSc1ccccc1)c1ccc(F)cc1 | active: 10 µM
18 | O=[N+]([O-])c1c(C(Cl)Cl)nn(-c2ccc(Cl)cc2)c1N1CCCCC1 | inconclusive [inhibitor, partial curve, poor fit]
19 | CCc1ccc(C(CNc2nc(C(F)(F)F)nc3ccccc23)N(C)C)cc1 (stereo unspecified) | inconclusive [inhibitor, partial curve, poor fit]
20 | Brc1ccc2nc(-c3c[nH]c4ccccc34)cn2c1 | inconclusive [inhibitor, single point]
21 | CCc1ccc(OCC(=O)Nc2ccc(S(=O)(=O)N3CCOCC3)cc2)cc1 | inconclusive [inhibitor, single point]

Row | SMILES | Potency
22 | CSc1ccccc1NC(=O)c1ccccn1 | inconclusive [inhibitor, partial curve, poor fit]
23 | CC1CC(NS(=O)(=O)c2cc3c4c(c2)CCN4C(=O)CC3)CC(C)(C)C1 (stereo unspecified) | inactive
24 | CCOc1ccc(N(C)S(=O)(=O)c2ccc3c(c2)CCCN3C(C)=O)cc1 | inactive
25 | Cc1ccc(C2=NOC(=O)/C2=C\c2ccccc2)cc1 | inactive
26 | COc1ccc(CCNC(=O)Cn2c(=O)n(Cc3ccco3)c(=O)c3ccc(Cl)cc32)cc1OC | inconclusive [inhibitor, partial curve, poor fit]
27 | CC(=O)Nc1ccc(NC(=O)CCCn2nc(C)c3sc4ccccc4c3c2=O)cc1 | inactive
28 | COc1ccc(NC(=O)CCCc2ccccc2)cc1OC | inactive
29 | CCOc1ccc(NC(=O)c2ccccc2NC(=O)CNC2CCCC(C)C2C)cc1 (stereo unspecified) | inconclusive [inhibitor, partial curve, poor fit]
30 | CCCCN(C)C(=S)Nc1ccc(Oc2ccccc2)cc1 | inconclusive [inhibitor, partial curve]
31 | CC(NC(=S)NC(=O)c1ccccc1)c1ccccc1 (stereo unspecified) | inconclusive [inhibitor, single point]
32 | C/C(CC(=O)Nc1cccc(Cl)c1Cl)=N\NC(=O)c1ccccc1C | inconclusive [inhibitor, partial curve, poor fit]
33 | COc1ccc(CNC(=O)c2cc3c(=O)n(Cc4ccco4)ccc3nc2C)cc1 | inconclusive [inhibitor, full curve, poor fit]
34 | CCOc1ccc(C(=O)Nc2cccc(-c3nc4cccnc4o3)c2)cc1Cl | inconclusive [inhibitor, single point]
35 | Cc1cccc(N2CCN(C(=O)c3ccc4nc(N5CCCCC5)sc4c3)CC2)c1C | inconclusive [inhibitor, partial curve, poor fit]
36 | CCc1cccc(NC(=O)CCS(=O)(=O)c2ccc(Br)cc2)c1 | inconclusive [inhibitor, single point]
37 | COc1ccc(COCC(O)CN2CCC(CN3C(=O)c4cccc5cccc(c45)C3=O)CC2)cc1OC (stereo unspecified) | inconclusive [inhibitor, single point]
38 | Cc1cc(C)c2c(=O)n(CC(=O)NCCCN3CCN(c4ccccc4F)CC3)sc2n1 | inconclusive [inhibitor, single point]
39 | Cc1cccc(OCC(=O)O/N=C(\N)Cc2ccc([N+](=O)[O-])cc2)c1 | inconclusive [inhibitor, single point]
40 | CCc1ccccc1NC(=O)CN1CCN(C(=O)CNC(=O)c2ccc(-c3ccccc3)cc2)CC1 | inconclusive [inhibitor, partial curve, poor fit]
41 | O=C1CCCc2cc(S(=O)(=O)N3CCCC(C(=O)NCc4ccccc4)C3)ccc2N1 (stereo unspecified) | inconclusive [inhibitor, partial curve, poor fit]

Source: PubChem BioAssay AID624417 (National Center for Advancing Translational Sciences (NCATS), 2012)
